In paper PMC8214628:
Results are given in words; binding and its absence hold for the method and conditions named. In cells and extracts the contact can be indirect. Some binding calls cover weakened binding; strength is not graded here. For some of these results: Where a sequence is shown, tags or fusion partners need not be part of it.

Amino acid sequences for entries named in this document (tags omitted). Residues count along the entry.
UniProt P07954, residues 45-510: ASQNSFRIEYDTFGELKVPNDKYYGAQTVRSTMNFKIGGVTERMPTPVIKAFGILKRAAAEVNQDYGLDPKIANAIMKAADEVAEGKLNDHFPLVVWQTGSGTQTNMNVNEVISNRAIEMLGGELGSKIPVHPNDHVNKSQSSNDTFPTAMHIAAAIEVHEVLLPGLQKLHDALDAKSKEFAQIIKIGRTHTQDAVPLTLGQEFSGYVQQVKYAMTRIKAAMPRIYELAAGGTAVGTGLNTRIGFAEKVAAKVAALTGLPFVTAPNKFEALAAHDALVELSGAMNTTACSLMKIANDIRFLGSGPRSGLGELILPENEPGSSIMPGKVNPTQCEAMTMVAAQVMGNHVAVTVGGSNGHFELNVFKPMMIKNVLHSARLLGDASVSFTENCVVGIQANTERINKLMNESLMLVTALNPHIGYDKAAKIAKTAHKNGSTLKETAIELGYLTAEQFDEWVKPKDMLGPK
UniProt P42230: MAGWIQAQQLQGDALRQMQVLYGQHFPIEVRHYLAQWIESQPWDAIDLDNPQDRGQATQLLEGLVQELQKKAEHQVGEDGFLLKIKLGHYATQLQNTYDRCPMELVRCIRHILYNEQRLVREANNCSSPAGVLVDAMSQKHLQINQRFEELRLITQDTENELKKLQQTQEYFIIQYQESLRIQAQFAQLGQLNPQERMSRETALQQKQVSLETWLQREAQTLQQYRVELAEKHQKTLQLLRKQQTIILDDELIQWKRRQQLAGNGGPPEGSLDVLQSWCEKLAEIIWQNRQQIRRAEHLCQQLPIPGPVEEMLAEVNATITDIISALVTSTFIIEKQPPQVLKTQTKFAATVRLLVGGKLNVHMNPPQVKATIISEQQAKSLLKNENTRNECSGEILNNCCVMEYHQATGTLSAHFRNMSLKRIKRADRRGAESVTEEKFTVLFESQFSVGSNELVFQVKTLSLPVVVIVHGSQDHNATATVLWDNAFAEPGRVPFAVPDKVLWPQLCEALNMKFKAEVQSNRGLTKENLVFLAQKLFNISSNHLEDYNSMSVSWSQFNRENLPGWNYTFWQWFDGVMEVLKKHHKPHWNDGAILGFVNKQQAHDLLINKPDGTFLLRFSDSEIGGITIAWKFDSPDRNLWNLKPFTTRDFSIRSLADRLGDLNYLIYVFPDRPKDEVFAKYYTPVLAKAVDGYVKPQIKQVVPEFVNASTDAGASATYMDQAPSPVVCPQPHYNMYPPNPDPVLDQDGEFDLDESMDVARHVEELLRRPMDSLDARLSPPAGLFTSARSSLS
UniProt P42229: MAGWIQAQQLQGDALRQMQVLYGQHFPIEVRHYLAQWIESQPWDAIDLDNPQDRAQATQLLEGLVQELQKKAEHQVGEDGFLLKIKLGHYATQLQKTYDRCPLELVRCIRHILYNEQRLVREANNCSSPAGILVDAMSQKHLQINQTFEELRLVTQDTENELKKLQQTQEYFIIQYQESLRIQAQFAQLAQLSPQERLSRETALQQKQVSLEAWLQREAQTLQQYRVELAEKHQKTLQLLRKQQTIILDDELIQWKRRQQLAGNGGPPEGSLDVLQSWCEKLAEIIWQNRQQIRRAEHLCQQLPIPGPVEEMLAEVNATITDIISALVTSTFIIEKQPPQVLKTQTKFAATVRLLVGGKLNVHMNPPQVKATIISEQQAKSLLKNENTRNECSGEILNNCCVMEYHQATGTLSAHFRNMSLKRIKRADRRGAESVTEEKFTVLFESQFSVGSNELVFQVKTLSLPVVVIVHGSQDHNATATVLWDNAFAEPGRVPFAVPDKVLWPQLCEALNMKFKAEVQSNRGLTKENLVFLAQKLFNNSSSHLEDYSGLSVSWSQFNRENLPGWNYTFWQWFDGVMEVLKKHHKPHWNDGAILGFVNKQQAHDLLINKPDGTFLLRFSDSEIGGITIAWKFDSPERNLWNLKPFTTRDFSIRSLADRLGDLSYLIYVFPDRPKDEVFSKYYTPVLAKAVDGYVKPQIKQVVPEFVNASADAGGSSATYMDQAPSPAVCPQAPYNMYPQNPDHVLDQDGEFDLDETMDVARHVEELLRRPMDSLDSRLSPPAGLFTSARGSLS

What was measured:
FLAG-IDH2 = molecular target: T1, FLAG-IDH2 (UniProt P48735); test: co-IP; 293T cells co-transfected with Myc-STAT5A and FLAG-tagged proteins; lysed in 0.1% NP40 buffer; anti-FLAG agarose beads, 4 °C overnight; eluted with FLAG peptide; blotted for Myc and FLAG
T1 sequence: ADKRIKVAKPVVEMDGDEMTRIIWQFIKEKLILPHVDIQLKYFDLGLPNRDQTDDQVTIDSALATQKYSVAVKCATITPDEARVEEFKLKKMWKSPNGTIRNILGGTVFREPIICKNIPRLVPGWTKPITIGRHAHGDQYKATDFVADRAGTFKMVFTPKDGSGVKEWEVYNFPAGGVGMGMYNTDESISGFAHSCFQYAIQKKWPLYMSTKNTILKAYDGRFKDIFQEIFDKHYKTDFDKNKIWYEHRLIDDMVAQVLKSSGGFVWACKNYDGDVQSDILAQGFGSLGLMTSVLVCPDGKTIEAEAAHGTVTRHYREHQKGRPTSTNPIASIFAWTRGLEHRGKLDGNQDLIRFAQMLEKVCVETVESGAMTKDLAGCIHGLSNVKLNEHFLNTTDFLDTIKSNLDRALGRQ

FLAG-ACO2 = molecular target: T2, FLAG-ACO2 (UniProt Q99798); test: as above
T2 sequence: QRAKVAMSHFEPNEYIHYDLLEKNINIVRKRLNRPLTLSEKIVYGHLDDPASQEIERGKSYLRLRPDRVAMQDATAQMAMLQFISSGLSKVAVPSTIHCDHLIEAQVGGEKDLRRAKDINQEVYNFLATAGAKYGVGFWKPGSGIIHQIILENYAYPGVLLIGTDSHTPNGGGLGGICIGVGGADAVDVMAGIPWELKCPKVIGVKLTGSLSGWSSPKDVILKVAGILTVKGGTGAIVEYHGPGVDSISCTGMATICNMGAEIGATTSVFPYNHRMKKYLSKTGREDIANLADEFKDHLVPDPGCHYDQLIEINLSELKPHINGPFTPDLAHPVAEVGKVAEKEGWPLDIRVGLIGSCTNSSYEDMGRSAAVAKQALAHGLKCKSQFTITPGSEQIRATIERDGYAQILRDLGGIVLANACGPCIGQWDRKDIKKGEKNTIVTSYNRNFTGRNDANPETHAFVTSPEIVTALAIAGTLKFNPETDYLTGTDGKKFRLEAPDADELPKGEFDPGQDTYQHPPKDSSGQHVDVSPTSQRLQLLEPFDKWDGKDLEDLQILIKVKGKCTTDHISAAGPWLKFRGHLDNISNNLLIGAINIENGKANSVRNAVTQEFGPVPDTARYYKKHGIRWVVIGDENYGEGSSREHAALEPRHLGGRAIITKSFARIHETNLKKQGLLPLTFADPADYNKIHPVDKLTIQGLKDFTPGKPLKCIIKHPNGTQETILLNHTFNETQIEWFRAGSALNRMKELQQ

FLAG-FH = FLAG-FH (UniProt P07954); test: as above
FLAG-ALDOA = molecular target: T3, FLAG-ALDOA (UniProt P04075); test: as above
T3 sequence: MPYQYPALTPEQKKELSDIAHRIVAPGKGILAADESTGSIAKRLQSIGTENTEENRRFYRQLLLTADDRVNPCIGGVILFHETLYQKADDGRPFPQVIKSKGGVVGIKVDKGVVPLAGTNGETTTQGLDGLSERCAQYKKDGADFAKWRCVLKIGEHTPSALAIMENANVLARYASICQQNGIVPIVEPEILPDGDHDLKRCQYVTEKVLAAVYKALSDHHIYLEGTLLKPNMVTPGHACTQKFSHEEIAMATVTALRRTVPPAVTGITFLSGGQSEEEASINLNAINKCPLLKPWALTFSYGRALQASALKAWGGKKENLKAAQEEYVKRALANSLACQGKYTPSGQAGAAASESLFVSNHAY

FLAG-OGDH = molecular target: T4, FLAG-OGDH (UniProt Q02218); test: as above
T4 sequence: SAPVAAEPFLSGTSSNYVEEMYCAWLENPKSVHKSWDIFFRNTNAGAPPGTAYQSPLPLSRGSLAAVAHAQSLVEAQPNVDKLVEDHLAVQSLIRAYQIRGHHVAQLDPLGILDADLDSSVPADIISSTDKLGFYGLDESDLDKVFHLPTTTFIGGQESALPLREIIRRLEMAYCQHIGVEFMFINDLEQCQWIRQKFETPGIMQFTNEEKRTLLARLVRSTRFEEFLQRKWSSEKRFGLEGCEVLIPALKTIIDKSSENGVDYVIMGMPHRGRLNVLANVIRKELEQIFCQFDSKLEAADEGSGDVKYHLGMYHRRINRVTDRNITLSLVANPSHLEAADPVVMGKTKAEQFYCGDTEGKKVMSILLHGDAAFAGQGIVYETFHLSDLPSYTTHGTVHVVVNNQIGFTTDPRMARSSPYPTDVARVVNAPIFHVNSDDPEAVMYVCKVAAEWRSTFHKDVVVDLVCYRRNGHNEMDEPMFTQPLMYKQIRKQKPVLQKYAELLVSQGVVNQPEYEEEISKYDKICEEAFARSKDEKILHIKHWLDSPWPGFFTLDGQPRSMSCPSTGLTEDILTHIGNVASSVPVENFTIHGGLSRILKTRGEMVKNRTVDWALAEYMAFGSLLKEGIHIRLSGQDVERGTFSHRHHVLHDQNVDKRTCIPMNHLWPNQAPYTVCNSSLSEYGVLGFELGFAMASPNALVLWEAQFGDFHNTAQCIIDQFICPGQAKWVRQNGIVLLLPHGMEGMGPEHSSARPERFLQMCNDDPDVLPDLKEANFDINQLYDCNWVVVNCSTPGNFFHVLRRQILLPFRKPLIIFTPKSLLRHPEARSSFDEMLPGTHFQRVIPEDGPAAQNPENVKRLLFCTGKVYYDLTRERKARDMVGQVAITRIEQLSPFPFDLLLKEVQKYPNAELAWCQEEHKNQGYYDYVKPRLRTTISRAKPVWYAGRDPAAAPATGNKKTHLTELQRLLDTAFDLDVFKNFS

[1] = molecular target: endogenous STAT5A of primary mouse hepatocytes (mouse (endogenous in primary mouse hepatocytes)) (UniProt P42230); test: co-IP; endogenous proteins; anti-STAT5A antibody and Protein A/G beads, 4 °C overnight; lysates of 293T, HeLa, MIHA cells and primary mouse hepatocytes; control IgG
FLAG-DLAT = molecular target: T5, FLAG-DLAT (UniProt P10515); test: co-IP; parental, STAT5A-KO and reconstituted (STAT5A-WT, mito-STAT5A, STAT5A-4A) HeLa cells transiently transfected with DLAT-FLAG; whole-cell lysate, anti-FLAG antibody; endogenous subunits blotted; more subunits precipitated in STAT5A-KO cells
T5 sequence: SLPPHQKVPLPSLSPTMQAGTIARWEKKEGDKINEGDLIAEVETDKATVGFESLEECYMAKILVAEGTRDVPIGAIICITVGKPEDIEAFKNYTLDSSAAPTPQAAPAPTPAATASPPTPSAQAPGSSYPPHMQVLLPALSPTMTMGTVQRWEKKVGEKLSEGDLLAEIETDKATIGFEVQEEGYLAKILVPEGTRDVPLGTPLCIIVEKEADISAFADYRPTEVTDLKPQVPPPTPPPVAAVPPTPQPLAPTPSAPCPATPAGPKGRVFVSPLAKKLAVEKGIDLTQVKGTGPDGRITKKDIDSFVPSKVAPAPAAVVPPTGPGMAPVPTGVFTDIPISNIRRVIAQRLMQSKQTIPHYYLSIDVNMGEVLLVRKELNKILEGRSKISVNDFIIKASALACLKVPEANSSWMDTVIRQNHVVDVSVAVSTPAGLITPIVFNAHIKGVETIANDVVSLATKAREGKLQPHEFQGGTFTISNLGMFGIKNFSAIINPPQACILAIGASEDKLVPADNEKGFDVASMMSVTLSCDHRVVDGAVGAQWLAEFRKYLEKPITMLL

In the case of Myc–STAT5A (from UniProt P42229 1-794), the binding (FLAG-IDH2) is reported as “no binding”, the binding (FLAG-ACO2) is reported as “no binding” and the binding (FLAG-FH) is reported as “no binding”. The binding (FLAG-ALDOA) was “no binding” and the binding (FLAG-OGDH) was “no binding”.

B1: endogenous PDHA1 of primary mouse hepatocytes (protein, UniProt P35486 30-390)
chain: FANDATFEIKKCDLHRLEEGPPVTTVLTREDGLKYYRMMQTVRRMELKADQLYKQKIIRGFCHLCDGQEACCVGLEAGINPTDHLITAYRAHGFTFTRGLPVRAILAELTGRRGGCAKGKGGSMHMYAKNFYGGNGIVGAQVPLGAGIALACKYNGKDEVCLTLYGDGAANQGQIFEAYNMAALWKLPCIFICENNRYGMGTSVERAAASTDYYKRGDFIPGLRVDGMDILCVREATKFAAAYCRSGKGPILMELQTYRYHGHSMSDPGVSYRTREEIQEVRSKSDPIMLLKDRMVNSNLASVEELKEIDVEVRKEIEDAAQFATADPEPPLEELGYHIYSSDPPFEVRGANQWIKFKSVS
B1 was tested, and the binding [1] was “binds”.

B2: endogenous PDHB of primary mouse hepatocytes (protein, UniProt Q9D051 31-359)
chain: VQLTVREAINQGMDEELERDEKVFLLGEEVAQYDGAYKVSRGLWKKYGDKRIIDTPISEMGFAGIAVGAAMAGLRPICEFMTFNFSMQAIDQVINSAAKTYYMSAGLQPVPIVFRGPNGASAGVAAQHSQCFAAWYGHCPGLKVVSPWNSEDAKGLIKSAIRDNNPVVMLENELMYGVAFELPAEAQSKDFLIPIGKAKIERQGTHITVVAHSRPVGHCLEAAAVLSKEGIECEVINLRTIRPMDIEAIEASVMKTNHLVTVEGGWPQFGVGAEICARIMEGPAFNFLDAPAVRVTGADVPMPYAKVLEDNSVPQVKDIIFAVKKTLNI
In the case of B2, the binding [1] is reported as “binds”.

B3: endogenous DLD of primary mouse hepatocytes (protein, UniProt O08749 36-509)
chain: ADQPIEADVTVIGSGPGGYVAAIKSAQLGFKTVCIEKNETLGGTCLNVGCIPSKALLNNSHYYHMAHGKDFASRGIEIPEVRLNLEKMMEQKHSAVKALTGGIAHLFKQNKVVHVNGFGKITGKNQVTATKADGSTQVIDTKNILVATGSEVTPFPGITIDEDTIVSSTGALSLKKVPEKLVVIGAGVIGVELGSVWQRLGADVTAVEFLGHVGGIGIDMEISKNFQRILQRQGFKFKLNTKVTGATKKSDGKIDVSVEAASGGKAEVITCDVLLVCIGRRPFTQNLGLEELGIELDPKGRIPVNNRFQTKIPNIYAIGDVVAGPMLAHKAEDEGIICVEGMAGGAVHIDYNCVPSVIYTHPEVAWVGKSEEQLKEEGIEFKIGKFPFAANSRAKTNADTDGMVKILGHKSTDRVLGAHILGPGAGEMVNEAALALEYGASCEDIARVCHAHPTLSEAFREANLAAAFGKPINF
B3 was tested, and the binding [1] was “binds”.

B4: endogenous DLAT of primary mouse hepatocytes (protein, UniProt Q8BMF4 86-642)
chain: SLPPHQKVPLPSLSPTMQAGTIARWEKKEGEKISEGDLIAEVETDKATVGFESLEECYMAKILVPEGTRDVPVGSIICITVEKPQDIEAFKNYTLDLAAAAAPQAAPAAAPAPAAAPAAPSASAPGSSYPTHMQIVLPALSPTMTMGTVQRWEKKVGEKLSEGDLLAEIETDKATIGFEVQEEGYLAKILVPEGTRDVPLGAPLCIIVEKQEDIAAFADYRPTEVTSLKPQAAPPAPPPVAAVPPTPQPVAPTPSAAPAGPKGRVFVSPLAKKLAAEKGIDLTQVKGTGPEGRIIKKDIDSFVPSKAAPAAAAAMAPPGPRVAPAPAGVFTDIPISNIRRVIAQRLMQSKQTIPHYYLSVDVNMGEVLLVRKELNKMLEGKGKISVNDFIIKASALACLKVPEANSSWMDTVIRQNHVVDVSVAVSTPAGLITPIVFNAHIKGLETIASDVVSLASKAREGKLQPHEFQGGTFTISNLGMFGIKNFSAIINPPQACILAIGASEDKLIPADNEKGFDVASVMSVTLSCDHRVVDGAVGAQWLAEFKKYLEKPITMLL
In the case of B4, the binding [1] is reported as “binds”.

B5: endogenous PDHB (protein, UniProt P11177 31-359)
chain: LQVTVRDAINQGMDEELERDEKVFLLGEEVAQYDGAYKVSRGLWKKYGDKRIIDTPISEMGFAGIAVGAAMAGLRPICEFMTFNFSMQAIDQVINSAAKTYYMSGGLQPVPIVFRGPNGASAGVAAQHSQCFAAWYGHCPGLKVVSPWNSEDAKGLIKSAIRDNNPVVVLENELMYGVPFEFPPEAQSKDFLIPIGKAKIERQGTHITVVSHSRPVGHCLEAAAVLSKEGVECEVINMRTIRPMDMETIEASVMKTNHLVTVEGGWPQFGVGAEICARIMEGPAFNFLDAPAVRVTGADVPMPYAKILEDNSIPQVKDIIFAIKKTLNI
In the case of B5, the binding (FLAG-DLAT) is reported as “binds”.
